Data from PubChem BioAssay AID488969 (Vanderbilt High Throughput Screening Facility, 2010).
Whole data set: some 110,000 compounds, median “z-score” near -0.1, cut for the highest 2% near 2. This is one part of the list. Active and inactive are the calls of the source.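 Rule for the calls: active = z-score in the third read window above 3 or below -3; inactive = the rest.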

Biological target: Metabotropic glutamate receptor 8 (Rattus norvegicus) (UniProt P70579)
Assay: rat mGluR8 modulators via GIRK flux, primary screen, cell-based, thallium flux, HTS (AID 488969)
Details: HEK293 rat mGluR8, GIRK (G protein-gated inwardly rectifying potassium channel) thallium flux, FluoZin2; at 10 µM; stronger effect = higher value; submaximal glutamate (EC20) added with thallium

UniProt P70579, sequence (P70579 whole entry, looked up): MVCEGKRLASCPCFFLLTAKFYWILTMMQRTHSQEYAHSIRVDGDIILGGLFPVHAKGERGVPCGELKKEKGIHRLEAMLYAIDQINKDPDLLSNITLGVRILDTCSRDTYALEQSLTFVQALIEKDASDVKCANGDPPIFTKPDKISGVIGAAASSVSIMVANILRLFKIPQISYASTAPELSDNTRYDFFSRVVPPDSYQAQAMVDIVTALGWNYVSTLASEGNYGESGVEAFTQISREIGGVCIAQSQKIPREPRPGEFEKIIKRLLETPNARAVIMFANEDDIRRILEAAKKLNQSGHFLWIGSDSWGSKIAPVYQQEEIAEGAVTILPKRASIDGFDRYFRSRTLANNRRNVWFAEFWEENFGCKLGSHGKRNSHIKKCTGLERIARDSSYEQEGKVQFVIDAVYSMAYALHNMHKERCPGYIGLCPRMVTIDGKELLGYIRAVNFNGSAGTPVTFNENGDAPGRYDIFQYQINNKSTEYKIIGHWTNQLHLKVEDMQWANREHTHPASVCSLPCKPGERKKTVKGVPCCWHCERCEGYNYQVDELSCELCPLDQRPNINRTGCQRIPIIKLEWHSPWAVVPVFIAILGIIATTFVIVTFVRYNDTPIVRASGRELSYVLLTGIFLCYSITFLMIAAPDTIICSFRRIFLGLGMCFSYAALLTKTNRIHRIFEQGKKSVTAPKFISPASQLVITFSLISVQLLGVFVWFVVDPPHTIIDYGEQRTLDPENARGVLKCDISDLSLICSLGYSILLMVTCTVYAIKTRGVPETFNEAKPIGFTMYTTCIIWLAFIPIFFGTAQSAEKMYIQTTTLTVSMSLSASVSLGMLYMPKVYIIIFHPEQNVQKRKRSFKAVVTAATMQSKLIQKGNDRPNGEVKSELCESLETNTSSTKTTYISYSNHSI

Row | SMILES | z-score
1 | CC(C)(C)NC(=O)C(=O)NNC(=O)COc1ccc(Br)cc1 | 1.89
2 | CCCS(=O)(=O)N1CCN(Cc2ccco2)CC1 | 0.471
3 | CCOC(=O)c1cnn(-c2ccc(C)cc2)c1N | -0.0833
4 | O=C(/C=C/c1cccs1)NCc1cccnc1 | -0.257
5 | O=C(Nc1cccc(-c2cnc3ccccc3n2)c1)c1cccc(NC(=O)c2ccco2)c1 | -0.268
6 | CCCSc1nc2c(c(=O)[nH]c(=O)n2C)n1CCc1ccccc1 | 0.364
7 | Cc1nc2ccccc2nc1OCC(=O)NCC(F)(F)F | 0.894
8 | COc1ccc(CCN2C(=O)CC(Sc3ncccc3C(=O)O)C2=O)cc1OC (centres undefined) | -0.00798
9 | CCCN(CCC)C(=O)CC(c1ccccc1)c1ccc(C)cc1O (centres undefined) | -0.601
10 | O=C(NCCc1c[nH]c2ccccc12)c1cc2sccc2n1Cc1ccccc1 | -0.216
11 | COCc1[nH][nH]c(=O)c1C=Nc1ccc(Oc2ccccc2)cc1 | -0.0851
12 | COc1cc(C2C3=C(CCCC3=O)Nc3[nH]n(-c4ccccc4)c(=O)c32)ccc1O (centres undefined) | -0.337
13 | CCOC(=O)c1cccc(N/C=C/C(=O)c2ccc(OC)c(OC)c2)c1 | -0.632
14 | Cc1ccc(C(=O)N/N=C2\CCc3ccccc32)c(C)c1 | -1.24
15 | COc1ccc(C(=O)NNc2ccccc2)cc1 | -0.0891
16 | COc1ccc(CSc2nc(CSC)cc(N3CCOCC3)n2)cc1 | 0.264
17 | O=C(CCN1C(=O)C2C3C=CC(C3)C2C1=O)N1CCN(c2cccc(Cl)c2)CC1 (centres undefined) | -0.0338
18 | Cc1cc(C)nc(N(C#N)CN2C(=O)c3ccccc3C2=O)n1 | -0.507
19 | O=C(NCc1ccccc1)C(c1ccncc1)N(C(=O)c1csnn1)C1CC1 (centres undefined) | -0.2
20 | CSc1nc(C)cc(OCC(=O)n2nc(C)cc2C)n1 | -0.0686
21 | COCCCNC(=O)c1ccc(NS(C)(=O)=O)cc1 | -0.421
22 | COC(=O)c1nc(NC(=O)C(C)C)n[nH]1 | 0.0584

Row | SMILES | z-score
23 | O=C(CSc1nnc(COc2ccc(Cl)cc2)n1Cc1ccco1)c1ccccc1F | -0.269
24 | Cn1c(NC(=O)C[n+]2cc(-c3ccccc3)n3c2CCC3)cc(=O)n(C)c1=O | -0.0764
25 | COc1ccccc1C(c1nnnn1C(C)(C)C)N1CCN(Cc2ccncc2)CC1 (centres undefined) | -0.332
26 | Fc1ccccc1NC(=S)N/N=C/c1ccccc1Br | active: 13.4
27 | COCCNc1nnc(SCC(=O)Nc2sc3c(c2C(=O)c2ccccc2)CCCC3)s1 | -0.575
28 | CCOC(=O)c1cc2c(=O)n3ccccc3nc2n(Cc2ccco2)c1=NC(=O)c1cccnc1 | -0.775
29 | COc1cc(S(=O)(=O)NCCN2CCOCC2)c(OC)cc1Cl | -0.41
30 | O=C(c1ccc(N2CCN(C3CC(=O)N(c4ccc(F)cc4)C3=O)CC2)cc1)c1cccnc1 (centres undefined) | -0.22
31 | CCOc1cc(C2NN=C(c3ccc(C)cc3)S2)ccc1O (centres undefined) | active: 8.33
32 | Cn1cc(Cl)nc1C(O)c1ccccc1 (centres undefined) | -0.173
33 | Cn1c(CNc2nc(-c3ccccc3)cs2)nnc1SCC(=O)N1CCc2ccccc21 | -0.0924
34 | CCS(=O)(=O)N1Cc2ccccc2CC1C(=O)Nc1nnc(SCc2ccc(C#N)cc2)s1 (centres undefined) | -0.072
35 | Nc1c(-c2ccccc2)n[nH]c1-c1ccccc1 | -0.178
36 | O=c1[nH]c2ccsc2c(=O)n1-c1ccc(F)c(Cl)c1 | 0.0996
37 | COc1ccc(NC(=S)c2ccccc2)cc1 | -0.0621
38 | N#C/C(=C/c1ccc(N2CCCCC2)o1)C(=O)NCCc1c[nH]c2ccccc12 | -0.0611
39 | Cc1cc(C(=O)CN2C(=O)NC3(CCCc4sccc43)C2=O)c(C)n1-c1ccc(Cl)cc1 (centres undefined) | -0.138
40 | Cc1ccc(SCCCCN2C(=O)NC(C)(C)C2=O)cc1 | -0.428
41 | Nc1nc2n(n1)C(c1cccs1)CC(c1ccccc1)N2 (centres undefined) | -0.0568
42 | COCCCn1c(SCC(=O)Nc2sc3c(c2C#N)CCCC3)nnc1-c1ccncc1 | -0.35
43 | O=C(c1ccccc1CCc1ccccc1)N1CCOCC1 | 0.192
44 | CCC(C)NC(=O)c1ccccc1NC(=O)c1ccc(CSc2ccc(C)cc2)cc1 (centres undefined) | -0.104

Row | SMILES | z-score
45 | CCn1c(SC)nnc1C1CCN(S(=O)(=O)c2ccc(OC)cc2)CC1 | 0.44
46 | CC(C(=O)Nc1ccc2c(c1)OCCO2)c1ccc([N+](=O)[O-])cc1 (centres undefined) | -0.332
47 | C=CCSc1nnc(CCCCCN2C(=O)c3cccc4cccc(c34)C2=O)o1 | -0.269
48 | COc1ccc(C(=O)NC(C)c2nnc(SCC(=O)Nc3nc4ccccc4s3)n2C)cc1 (centres undefined) | 0.843
49 | CCNC(=O)COC(=O)/C=C/c1ccccc1[N+](=O)[O-] | -0.0333
50 | COCC(=O)N(Cc1cc2ccccc2[nH]c1=O)c1ccc(OC)cc1 | -1.49
51 | OC(CNCc1ccco1)Cn1c2ccc(Br)cc2c2cc(Br)ccc21 (centres undefined) | 0.138
52 | CCN(CC)CCN1C(=O)C(O)=C(C(=O)c2cccs2)C1c1ccc(C)o1 (centres undefined) | -0.375
53 | COc1cc(/C=C/C(=O)c2ccc(NS(=O)(=O)c3ccc(C)cc3)cc2)ccc1OC(F)F | -0.188
54 | Nc1c(C(=O)Nn2cnnc2)cc([N+](=O)[O-])cc1[N+](=O)[O-] | -0.59
55 | Cn1c(=O)c(=O)n(C)c2cc(S(=O)(=O)NCCc3ccccc3)ccc21 | -0.321
56 | COC(=O)C(Cc1cnc(Cl)s1)(C(=O)OC)c1ccc(C(F)(F)F)cc1[N+](=O)[O-] | -0.16
57 | Cc1noc(C)c1S(=O)(=O)N(CC(=O)NCc1ccc2c(c1)OCO2)c1ccc(C(C)C)cc1 | -0.616
58 | Cc1nnc(-c2ccccc2)c(=O)n1/N=C/c1c(O)ccc2ccccc12 | -1.38
59 | CCCCOC(=O)Nc1ccc(S(=O)(=O)Nc2nc(C)cc(C)n2)cc1 | -0.246
60 | Cc1nn(Cc2ccc(Cl)cc2)c(C)c1NC(=O)C(c1ccccc1)c1ccccc1 | -0.308
61 | CCCn1c(SCC(=O)N2CCCc3ccccc32)nnc1-c1ccccn1 | -0.0622
62 | c1csc(C(c2nnnn2C2CCCCC2)N2CCCC3(CCCCC3)C2)c1 (centres undefined) | 0.522
63 | CC(C)c1[nH]c(=O)c(C#N)c2c1COC(C)(C)C2 | 0.293
64 | COc1cccc(C2=CC(c3ccc(N(C)C)cc3)n3ncnc3N2)c1 (centres undefined) | -0.173
65 | CCOC(=O)c1ccc(N2C(=O)c3n[nH]c(C)c3C2c2ccco2)cc1 (centres undefined) | -1.12
66 | COc1ccccc1/C=c1\sc2nc(-c3ccco3)nn2c1=O | -0.0605

Row | SMILES | z-score
67 | COc1ccccc1CCNC(=O)C1CCCO1 (centres undefined) | 1.49
68 | C/C(=N\NC(=O)CSCc1ccccc1Cl)c1cccc(NC(=O)c2ccccc2)c1 | -0.789
69 | CC1(C)Oc2ccc(C(=O)N3CCOCC3)cc2N(CC(=O)N2CCOCC2)C1=O | -0.908
70 | CCOC(=O)Nc1sc(NS(=O)(=O)c2ccccc2)nc1C | 0.0431
71 | N/C(=N\OC(=O)N1CCOCC1)c1ccc(Cl)cc1 | -0.107
72 | O=C(Cn1nnc2ccccc21)C1CC1 | -0.287
73 | Cc1cccc(S(=O)(=O)NCCC(=O)OCC(=O)Nc2ccc(C#N)cc2)c1 | -0.253
74 | Fc1ccc2nc(Nc3nc4c(F)cc(F)cc4s3)sc2c1 | active: 6.16
75 | O=C(Nc1ccn(-c2ccccc2)n1)c1ccccc1Br | -0.0878
76 | CC(=O)c1ccc(N(C(=O)Cn2nnc3ccccc32)C(C(=O)NC2CCCCC2)c2cn(C)nc2C)cc1 (centres undefined) | -0.0402
77 | O=C(CSc1ncc(C(F)(F)F)cc1Cl)N1CCN(S(=O)(=O)c2ccc3ccccc3c2)CC1 | -0.175
78 | Cc1ccc(Cl)cc1N1CCN(C(=O)Cn2ccc3ccccc3c2=O)CC1 | 0.1
79 | CCN(CC)C(=O)c1ccc2c(c1[N+](=O)[O-])C(=O)c1ccccc1C2=O | -0.162
80 | c1ccc(Sc2nc(N3CCCCC3)nc(N3CCCCC3)n2)nc1 | -1.53
81 | COc1ccc(-c2[nH]ncc2/C=N/NC(=O)c2cc(Br)ccc2O)c(OC)c1 | 0.0477
82 | Cn1c(-c2ccccc2)cc(=O)c2ccccc21 | -0.596
83 | Cc1cc(OCC(=O)O/N=C(\N)c2ccccc2)cc(C)c1Cl | -0.433
84 | COc1ccccc1CNS(=O)(=O)c1cc(C)ccc1OC | 0.0628
85 | CC(C)CNC(=S)N1CCN(C(c2ccccc2)c2ccccc2)CC1 | -0.358
86 | COc1ccc2c(c1)C(=O)N(c1ccccc1)C(=O)C2 | 0.178
87 | c1ccc(-c2nn3c(C4CCCCC4)nnc3s2)nc1 | -1.25
88 | CCN(Cc1cc(=O)n2ccsc2n1)c1cccc2ccccc12 | -0.0371

Row | SMILES | z-score
89 | N#CCC(=O)N/N=C/c1ccc(Sc2nc3ccccc3s2)o1 | 0.0378
90 | COc1ccc2oc(=O)c(C(=O)NCc3ccc4c(c3)OCO4)cc2c1 | -0.0693
91 | Cc1c(NC(=O)N2CCCCCC2)c(=O)n(-c2ccccc2)n1C | -0.127
92 | O=C(NCc1cccnc1)NC(C(F)(F)F)C(F)(F)F | 0.422
93 | Cc1cccc(NC(=O)C2Cc3ccccc3CN2C(=O)OCc2ccccc2)c1C (centres undefined) | -0.188
94 | COc1ccc(S(=O)(=O)N2CCC(C(=O)NCc3cccc(OC)c3)CC2)cc1 | -0.371
95 | COC(=O)c1ccc(NC(=S)NC(=O)c2c(Cl)cnn2C)cc1 | active: 10.1
96 | C/C(=C1/SC(=S)N(CCC(=O)O)C1=O)c1ccc(O)cc1 | -0.179
97 | COc1cc(C(=O)Oc2cccc(C=O)c2)cc(OC)c1OC | -0.494
98 | COc1ccc2nc(N3C(=O)CC(Cc4ccc(C)cc4)C3=O)sc2c1 (centres undefined) | 1.9
99 | O=C(CN1CCN(S(=O)(=O)c2ccc(Cl)cc2)CC1)Nc1ccc(N2CCOCC2)cc1 | -0.0764
100 | Cc1ccc(NC(=O)c2ccc(-c3nn(C)c(=O)c4ccccc34)cc2)cc1 | -1.73
101 | O=c1c2ccccc2nc(-c2ccco2)n1/N=C/c1ccco1 | -0.704
102 | CCC(C)NC(=O)CSc1nc2ccccc2c(=O)n1Cc1ccc(OC)cc1 (centres undefined) | active: 3.19
103 | Cc1c(C(=O)CN2CCOCC2)[nH]c2ccccc12 | -0.114
104 | O=C(COC(=O)CCc1nc2ccccc2n1-c1ccccc1)Nc1cccc(Cl)c1 | 0.245
105 | Cc1ccc(N(C)C(=O)N2CCN(c3ccccn3)CC2)cc1 | -0.0501
106 | Cc1ccc(S(=O)(=O)Cc2ccc(C(=O)N3CCCC3)o2)cc1 | -0.0492
107 | Cc1occc1C(=O)NCc1ccc(C(=O)O)o1 | 0.00164
108 | COc1ccc(C(=O)SC2=NCCS2)cc1OC | -0.155
109 | Cc1cc(=O)n2nc(N3CCC(C(=O)NC(C)c4ccccc4)CC3)sc2n1 (centres undefined) | -0.214
